Here are results for 1 compound from US20200237717A1, “Treatment of Staphylococcal and Enterococcal Infections Using Substituted Nitrostyrene Compounds” (Opal Biosciences Limited, priority 2017, published 2020).

Converted amounts (≈) assume the structure as drawn. Like-named read-outs stand apart in the source and are kept apart here.

In this test the test system is MRSA isolate Sa057 (VSSA). In words: microbe, parasite or virus in culture. Conditions: for MIC: Staphylococcus aureus, MRSA. It counts as cell-based, Staphylococcus aureus.

On to `C/C(=C\c1ccc2c(c1)OCO2)[N+](=O)[O-]` [BDM-I, 3,4-methylenedioxy-β-methyl-β-nitrostyrene], for which, under “Sa057, day 110 vs start, 6 out of 21 colonies”, the “BDM-I MIC increase” value stood at 1.5 mg/L. The MIC by setting is: (read-out: BDM-I MIC, Sa057 before passage in BDM-I) 3.5 mg/L (≈ 16.9 µM); (read-out: BDM-I MIC, Sa057 day 110 colonies, only 6 out of 21 colonies displayed the increase) 5 mg/L (≈ 24.1 µM).
